The source of these data is PMC9692854.

These are yes or no findings as the source states them, for the method shown. Some results given as binding are weak or reduced against the parent protein; the word gives no strength.

What all share (experiment): two-hybrid; ORFs in pGADT7 (AD, prey; strain Y187) or pGBKT7 (BD, bait; strain Y2HGold), pairwise mating; diploids grown 3 days at 30 °C on double-dropout (SDM/-Leu/-Trp/X-α-Gal/AbA) and quadruple-dropout (SDM/-Leu/-Trp/-Ade-His/X-α-Gal/AbA) medium; growth on quadruple dropout read as interaction
The target of experiment [1] is T1, Beauveria bassiana photolyase Phr2 (B. bassiana) (UniProt J4WK53).
T1 sequence: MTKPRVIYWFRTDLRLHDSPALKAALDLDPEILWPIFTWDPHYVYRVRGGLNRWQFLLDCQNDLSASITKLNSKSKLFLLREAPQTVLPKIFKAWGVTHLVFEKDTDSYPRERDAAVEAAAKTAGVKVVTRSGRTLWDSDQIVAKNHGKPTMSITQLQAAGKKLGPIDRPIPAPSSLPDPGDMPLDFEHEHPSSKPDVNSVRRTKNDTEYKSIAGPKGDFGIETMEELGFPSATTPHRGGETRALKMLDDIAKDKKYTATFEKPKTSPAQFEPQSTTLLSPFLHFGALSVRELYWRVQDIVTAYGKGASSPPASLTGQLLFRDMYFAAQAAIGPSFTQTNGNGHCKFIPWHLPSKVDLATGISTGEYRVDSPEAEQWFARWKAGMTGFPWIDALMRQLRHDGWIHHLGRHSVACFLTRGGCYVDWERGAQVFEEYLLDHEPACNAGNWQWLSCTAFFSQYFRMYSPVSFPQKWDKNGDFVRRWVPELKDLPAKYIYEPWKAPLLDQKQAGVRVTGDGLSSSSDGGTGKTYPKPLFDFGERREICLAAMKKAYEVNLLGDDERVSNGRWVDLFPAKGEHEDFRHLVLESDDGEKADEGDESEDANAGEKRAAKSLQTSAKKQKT

Experiment [2] addresses T2, Beauveria bassiana white collar protein WC1 (B. bassiana) (UniProt J5J1K4).
T2 sequence: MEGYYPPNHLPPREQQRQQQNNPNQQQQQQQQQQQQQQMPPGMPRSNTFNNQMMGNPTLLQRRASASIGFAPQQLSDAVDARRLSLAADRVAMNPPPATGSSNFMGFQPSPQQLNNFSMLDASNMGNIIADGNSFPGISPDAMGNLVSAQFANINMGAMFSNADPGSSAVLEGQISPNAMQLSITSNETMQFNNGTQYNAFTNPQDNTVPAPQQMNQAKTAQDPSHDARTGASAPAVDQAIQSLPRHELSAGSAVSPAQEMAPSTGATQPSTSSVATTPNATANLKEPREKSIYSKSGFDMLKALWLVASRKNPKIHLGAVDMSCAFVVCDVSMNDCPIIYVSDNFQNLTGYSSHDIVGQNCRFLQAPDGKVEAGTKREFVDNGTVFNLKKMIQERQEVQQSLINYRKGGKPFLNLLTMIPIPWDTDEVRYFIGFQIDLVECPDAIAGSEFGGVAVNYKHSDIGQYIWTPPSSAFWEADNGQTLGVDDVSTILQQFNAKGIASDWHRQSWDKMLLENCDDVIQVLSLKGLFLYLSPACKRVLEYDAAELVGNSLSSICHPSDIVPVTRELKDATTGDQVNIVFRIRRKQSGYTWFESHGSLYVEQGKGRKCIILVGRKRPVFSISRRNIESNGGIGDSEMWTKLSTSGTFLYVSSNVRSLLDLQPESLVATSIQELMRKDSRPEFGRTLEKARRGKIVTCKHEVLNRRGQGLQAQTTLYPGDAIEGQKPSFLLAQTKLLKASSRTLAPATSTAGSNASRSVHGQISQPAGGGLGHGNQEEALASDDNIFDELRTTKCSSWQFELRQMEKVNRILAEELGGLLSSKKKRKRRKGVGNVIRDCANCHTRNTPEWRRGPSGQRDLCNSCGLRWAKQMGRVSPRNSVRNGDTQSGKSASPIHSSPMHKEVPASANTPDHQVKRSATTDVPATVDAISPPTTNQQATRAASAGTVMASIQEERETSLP

Experiment [3] deals with T3, Beauveria bassiana white collar protein WC2 (B. bassiana) (UniProt J5JYA0).
T3 sequence: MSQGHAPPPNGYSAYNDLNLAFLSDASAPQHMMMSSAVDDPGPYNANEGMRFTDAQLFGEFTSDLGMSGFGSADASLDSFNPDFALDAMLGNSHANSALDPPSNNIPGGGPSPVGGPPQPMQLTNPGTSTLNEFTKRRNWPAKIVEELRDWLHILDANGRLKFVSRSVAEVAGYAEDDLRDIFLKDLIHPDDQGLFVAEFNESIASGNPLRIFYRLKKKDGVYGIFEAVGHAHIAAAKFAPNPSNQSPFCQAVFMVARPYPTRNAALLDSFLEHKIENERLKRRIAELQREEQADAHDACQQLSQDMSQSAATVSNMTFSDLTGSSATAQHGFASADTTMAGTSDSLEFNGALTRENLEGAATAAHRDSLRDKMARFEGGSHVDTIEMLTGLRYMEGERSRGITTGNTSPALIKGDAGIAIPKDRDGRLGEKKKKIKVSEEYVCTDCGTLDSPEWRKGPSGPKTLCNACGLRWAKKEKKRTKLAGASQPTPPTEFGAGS

B1: Beauveria bassiana Rad1 (protein, UniProt J4VYF0 1-940)
chain: MSTNNAPQPVKLSLPLEYQQALFQELRSEDELVVLARGLGLMRLVTNLLHSYDAAGNNLIVIVGAEDRENGWIGEALAEHAAISASPKARGLTVVNTDFQSVGAREKMYAAGGIFSITSRILVVDLLTALLSPETITGLIVLHADRIVATSLEAFILRVYRQKNKVGFLKAFADNPDPFTIGFSPLATMMRNLFLKKASLWPRFHVTVAQSLEGKKKAEVIELEVPMTEYMTDIQNAIMECVEISIHELKKGNPGLEMDDWNLDSALLKNFDVIVRRQLDPDWHRVSWKTKQIVNDLTVLRGLLAYVVSYDAVSFLQHLDTIHAAHSPPPGSTRQTQSPWLFLDAAQTLFETARKRVYSASIKQISQEENIDSLRPVLEELPKWSLLAEVLEEIDRDLHFEPHARDDSNGTILIMCSNIDTCRQLRNYLQTMHVKPKVTTKTSDDEDDPHKPSAIFMMRRRLRNYLRWKRQFAVVNASLFTENNKALNSATDSRPGHGGMRGGRAPSNKRRRQRGGGNMAVGMSRAENGSISQFFEKPNEVAELMAEVQITEEEAKQKDEVIADPLDNMEDYYQLYDMQDLVVIHAYDGDQDEHVLEEVRPRYIIMYEPDASFIRRVEVYRSSHNDRNVRVYFLYYGGSVEEQRYLASVRREKDAFTRLIKERASMSLVMTVEPHGIQDPQEAFLRTVNTRIAGGGRLAATAEPPRVVVDVREFRSSLPSLLHGRAMVIVPCMLTVGDYVLSPTICVERKSISDLVSSFKDGRLFTQAETMFQHYRNPMLLIEFDQNKSFTLEPFADLSGSMSSVSATNVSSDLQSKLVLLTLAFPKLRIIWSSSPYQTAEIFESLKTQEAEPDPIAAVRAGLDKDARAEDQVFNQEPQDMLAVVPGVTPQNIKNIIIKTENVKEVANMTPEELAPLVGKAAGRAIHAFFDRNVMDEEDY
Regarding B1, the binding result in experiment [1] is listed as “no binding”; in experiment [2] it was “binds”; in experiment [3], “binds”.

B2: Beauveria bassiana Rad10 (protein, UniProt J4UQI9 1-392)
chain: MADEYGADDALLAAMAAADSIPVPRRPVQQQPRPQKIQQPTPQRLDKAPPAASGSGGKVVQPTPQSLPQRQGASNILVSPRQRGNPVLTHLKSMPWEYSDIPADYVLGTTTCLLFLSLKYHRLHPEYVYTRIRNLQGKYNLRILLTMIDIPNHEDPLRELSKTSMVNNVTIVCCWSAAEAARYLELYKAYEHASFDAIRGKQSSSYAERLVDFVTVPRSLNKSDAVALVANFGSLKNAINADAEQLGMLSGWGGVKVKRWSAAIEEPFRAKNASKRILPTGDAAAVAALAEPDAANRGSRLQDAVPLSRVPLRDMPAASAAIEATPEAGQPVNSGKQFQFRGDTDDEDDELEAAATTTSKTAEAASKRAEFQAGQAEELSDGIAAALAKLRK
With B2, the binding entry is “no binding” in experiment [1], “binds” in experiment [2] and “binds” in experiment [3].
